The list shows a part of the results.
Assays:
Assay in all cases: glycan array binding signal (z-score within array); higher = stronger binding
Conditions in all cases: glycan notation: IUPAC condensed, linker removed
[1] = molecular target: Fuc(a1-2)[Gal(a1-3)]Gal(b1-4)[Fuc(a1-3)]Glc
Summary of the method: (§1)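 The binding signal is a Z-score computed within each array. Data were drawn from 3228 arrays in the Consortium for Functional Glycomics database, restricted to those with a known protein sequence. Scores were averaged over arrays of the same protein sequence at different concentrations or buffers, and over linkers, and negative values can be taken as non-binding.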

[2] = molecular target: Fuc(a1-2)[Gal(a1-3)]Gal(b1-4)[Fuc(a1-3)]GlcNAc
Summary of the method: as §1

[3] = molecular target: Fuc(a1-2)[Gal(a1-3)]Gal(b1-4)[Fuc(a1-3)]GlcNAc(b1-3)GalNAc
Summary of the method: as §1

[4] = molecular target: Fuc(a1-2)[Gal(a1-4)]Gal(b1-4)GlcNAc
Summary of the method: as §1

[5] = molecular target: Fuc(a1-2)[GalNAc(a1-3)]Gal
Summary of the method: as §1

[6] = molecular target: Fuc(a1-2)[GalNAc(a1-3)]Gal(b1-3)GalNAc(a1-3)[Fuc(a1-2)]Gal(b1-4)GlcNAc
Summary of the method: as §1

[7] = molecular target: Fuc(a1-2)[GalNAc(a1-3)]Gal(b1-3)GlcNAc
Summary of the method: as §1

[8] = molecular target: Fuc(a1-2)[GalNAc(a1-3)]Gal(b1-3)GlcNAc(b1-2)Man(a1-3)[Fuc(a1-2)[GalNAc(a1-3)]Gal(b1-3)GlcNAc(b1-2)Man(a1-6)]Man(b1-4)GlcNAc(b1-4)GlcNAc
Summary of the method: as §1

[9] = molecular target: Fuc(a1-2)[GalNAc(a1-3)]Gal(b1-3)GlcNAc(b1-2)Man(a1-3)[Fuc(a1-2)[GalNAc(a1-3)]Gal(b1-3)GlcNAc(b1-2)Man(a1-6)]Man(b1-4)GlcNAc(b1-4)[Fuc(a1-6)]GlcNAc
Summary of the method: as §1

[10] = molecular target: Fuc(a1-2)[GalNAc(a1-3)]Gal(b1-3)GlcNAc(b1-3)GalNAc
Summary of the method: as §1

[11] = molecular target: Fuc(a1-2)[GalNAc(a1-3)]Gal(b1-4)Glc
Summary of the method: as §1

[12] = molecular target: Fuc(a1-2)[GalNAc(a1-3)]Gal(b1-4)GlcNAc
Summary of the method: as §1

[13] = molecular target: Fuc(a1-2)[GalNAc(a1-3)]Gal(b1-4)GlcNAc(b1-2)Man(a1-3)[Fuc(a1-2)[GalNAc(a1-3)]Gal(b1-4)GlcNAc(b1-2)Man(a1-6)]Man(b1-4)GlcNAc(b1-4)GlcNAc
Summary of the method: as §1

[14] = molecular target: Fuc(a1-2)[GalNAc(a1-3)]Gal(b1-4)GlcNAc(b1-2)Man(a1-3)[Fuc(a1-2)[GalNAc(a1-3)]Gal(b1-4)GlcNAc(b1-2)Man(a1-6)]Man(b1-4)GlcNAc(b1-4)[Fuc(a1-6)]GlcNAc
Summary of the method: as §1

[15] = molecular target: Fuc(a1-2)[GalNAc(a1-3)]Gal(b1-4)GlcNAc(b1-2)Man(a1-3)[GalNAc(a1-3)[Fuc(a1-2)]Gal(b1-4)GlcNAc(b1-2)Man(a1-6)]Man(b1-4)GlcNAc(b1-4)GlcNAc
Summary of the method: as §1

[16] = molecular target: Fuc(a1-2)[GalNAc(a1-3)]Gal(b1-4)GlcNAc(b1-3)Gal(b1-4)GlcNAc
Summary of the method: as §1

[17] = molecular target: Fuc(a1-2)[GalNAc(a1-3)]Gal(b1-4)GlcNAc(b1-3)Gal(b1-4)GlcNAc(b1-3)Gal(b1-4)GlcNAc
Summary of the method: as §1

[18] = molecular target: Fuc(a1-2)[GalNAc(a1-3)]Gal(b1-4)GlcNAc(b1-3)GalNAc
Summary of the method: as §1

[19] = molecular target: Fuc(a1-2)[GalNAc(a1-3)]Gal(b1-4)[Fuc(a1-3)]GlcNAc
Summary of the method: as §1

[20] = molecular target: Fuc(a1-2)[GalNAc(a1-3)]Gal(b1-4)[Fuc(a1-3)]GlcNAc(b1-3)GalNAc
Summary of the method: as §1

[21] = molecular target: Fuc(a1-2)[GalNAc(a1-4)]Gal(b1-4)GlcNAc
Summary of the method: as §1

[22] = molecular target: Fuc(a1-2)[GalNAc(b1-3)]Gal
Summary of the method: as §1

Fuc(a1-3)GlcNAc = molecular target: Fuc(a1-3)GlcNAc
Summary of the method: as §1

B1: BC2L-A (Burkholderia cenocepacia), Q1BKJ8_BURCA (protein)
chain: ADSQTSSNRAGEFSIPPNTDFRAIFFANAAEQQHIKLFIGDSQEPAAYHKLTTRDGPREATLNSGNGKIRFEVSVNGKPSATDARLAPINGKKSDGSPFTVNFGIVVSEDGHDSDYNDGIVVLQWPIG
[1]
  glycan array binding signal (z-score): -0.219
[2]
  glycan array binding signal (z-score): -0.252
[3]
  glycan array binding signal (z-score): -0.218
[4]
  glycan array binding signal (z-score): -0.212
[5]
  glycan array binding signal (z-score): -0.284
[6]
  glycan array binding signal (z-score): -0.22
[7]
  glycan array binding signal (z-score): -0.291
[8]
  glycan array binding signal (z-score): -0.104
[9]
  glycan array binding signal (z-score): 1.18
[10]
  glycan array binding signal (z-score): -0.217
[11]
  glycan array binding signal (z-score): -0.292
[12]
  glycan array binding signal (z-score): -0.288
[13]
  glycan array binding signal (z-score): -0.165
[14]
  glycan array binding signal (z-score): 0.553
[15]
  glycan array binding signal (z-score): -0.195
[16]
  glycan array binding signal (z-score): -0.296
[17]
  glycan array binding signal (z-score): -0.235
[18]
  glycan array binding signal (z-score): -0.218
[19]
  glycan array binding signal (z-score): -0.277
[20]
  glycan array binding signal (z-score): -0.215
[21]
  glycan array binding signal (z-score): -0.235
[22]
  glycan array binding signal (z-score): -0.29
Fuc(a1-3)GlcNAc
  glycan array binding signal (z-score): -0.061

Reference: the supplement of paper PMC8728848
